According to PubChem BioAssay (NCI):
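Where inhibition never reached the appropriate level, the endpoint shown equals the highest concentration tested. Otherwise, values were interpolated linearly from a five-concentration, 48-hour dose response in 96-well plates. GI50 marks 50% less growth. TGI marks complete inhibition of growth.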

These compounds were tested on NCI-H322M lung (assay: DTP human tumour cell line panel, 48 h).
For CCN(CC)c1ccc(/C=N/NC(=O)c2ccc(NS(C)(=O)=O)cc2)c(O)c1, the GI50 was 300 nM and the TGI was 22000 nM. Work on O=C(NNc1nc2cc(F)ccc2n2c(CO)ccc12)c1cnccn1 yielded a GI50 of 304 nM and a TGI of over 100000 nM. C#C[C@]1(O)CC[C@H]2[C@@H]3CC=C4c5sc(Nc6ccncc6)nc5CC[C@]4(C)[C@H]3CC[C@@]21C was tested, and the GI50 was 839 nM and the TGI was 3040 nM.
